Among all 50,000 compounds or so, about 800 (1.6%) showed an effect of 50% or more. This is one part of the list.

The test deals with Bcl-2-like protein 10 (Homo sapiens) (UniProt Q9HD36). As to the kind of experiment: TR3 peptide-Bcl-B binding displacers, biochemical primary FP assay, phenotype converters (AID 1240).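 Also: 0% = Bcl-B with tracer peptide and DMSO and 100% = tracer peptide lacking Bcl-B.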 Particulars: GST-Bcl-B / FITC-TR3 peptide fluorescence polarization; stronger effect = higher value; compound at 3.75 mg/L. A general note: Fluorescence polarisation rises when a labelled molecule tumbles more slowly, as on binding a larger partner.
Sequence of UniProt Q9HD36 (Q9HD36 whole entry, looked up): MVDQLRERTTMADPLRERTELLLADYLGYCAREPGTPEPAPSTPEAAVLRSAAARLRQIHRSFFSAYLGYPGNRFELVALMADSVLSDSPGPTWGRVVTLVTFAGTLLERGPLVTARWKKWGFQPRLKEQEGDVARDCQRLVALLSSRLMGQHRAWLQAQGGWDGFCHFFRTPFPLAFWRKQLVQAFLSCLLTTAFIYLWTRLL
As for `CCOc1cc(C=C2C(=O)c3ccccc3C2=O)cc(Br)c1OCc1ccccc1`, the displacement turned out to be 11%.
As to `CC(=O)N(C1=C(N2CCCC2)C(=O)c2ccccc2C1=O)C1CCCCC1`, the displacement worked out at 3.4%.
`O=C1NC(=S)N(c2ccccc2)C(=O)/C1=C/c1cccs1`: the displacement is -4.6%.
As to `O=C1CC(C2CCCO2)C(=O)N1c1ccc(Cl)c(Cl)c1` (configuration not stated), the displacement is -3.7%.
Turning to `O=C(Nc1cccc(Cl)c1)Nc1nnc(-c2ccc(Cl)cc2Cl)s1`, the displacement was determined as 8.5%.
Regarding `Cn1c2ccccc2c2nnc(SCC(=O)OCN3C(=O)c4ccccc4C3=O)nc21`, the displacement is 25%.
For the molecule `COc1ccccc1N1N=C(c2ccccc2)CC1c1ccccc1` (configuration not stated), the displacement was 9.7%.
The value for `O=C(Nc1ccccc1F)c1ccc(Cl)c([N+](=O)[O-])c1` was -12.6%.
The value for `N/C(=N\OC(=O)Cc1ccc(-c2ccccc2)cc1)c1ccccn1` was -6.6%.
Regarding `Cc1cc(C(F)(F)F)nn1CC(=O)Nc1sc2c(c1C(N)=O)CCC(C)C2` (configuration not stated), the displacement is 10.8%.
With `Cc1cc(NC(=O)c2ccc(C)c([N+](=O)[O-])c2)ccc1NC(=O)c1ccco1`, the displacement came out at 0.6%.
As for `NNC(=O)c1ccc(-n2c(-c3ccccc3)ccc2-c2ccccc2)cc1`, the displacement worked out at 10.5%.
For `O=C(Nc1cccc(Cl)c1)c1cccc(NC(=S)Nc2ccc(F)cc2)c1`, the displacement is -3.1%.
As to `Cc1nc(SCC(=O)NC2CCCCC2)n[nH]1`, the displacement was 4.7%.
Take `O=C(O)CN(c1cccc(Br)c1)S(=O)(=O)c1ccccc1`: the displacement was found to be 6.1%.
On to `C=CCOc1c(Cl)cc(/C=C2/C(=O)NN(c3ccc(F)cc3)C2=O)cc1OC`, for which the displacement is -0.5%.
With `CCOC(=O)C1CCN(C(=O)c2ccccc2NC(C)=O)CC1`, the displacement is -11%.
On to `COc1ccc(N2C(=O)/C(=C\c3cccnc3)SC2=S)cc1`, for which the displacement is 15.9%.
Take `O=C(N/N=C/c1cccc([N+](=O)[O-])c1)C1CC(=O)N(c2ccc(F)cc2)C1` (configuration not stated): the displacement is -10.4%.
As for `Cc1cccc(OCc2nc(-c3ccc(Cl)cc3)no2)c1`, the displacement turned out to be 9.6%.
For the molecule `Cc1cc2nc(-c3ccc(Cl)c(NC(=O)c4ccco4)c3)oc2cc1C`, the displacement was -10.7%.
The value for `COC(=O)c1ccc(NC(=O)CCNS(=O)(=O)c2ccc(C)cc2)cc1` was -2.6%; that for `COc1ccc(N(CC(=O)Nc2ccc(C(C)=O)cc2)S(=O)(=O)c2ccccc2)cc1Cl` was 1.9%.
Regarding `Cc1ccc(C(=O)Nc2ccc(NC(=O)c3ccccc3Cl)cc2)cc1[N+](=O)[O-]`, the displacement is -1.5%.
In the case of `O=C(CN1C(=O)c2ccc([N+](=O)[O-])cc2C1=O)Nc1ccc2ccccc2c1`, the displacement was -8.3%.
Consider `COc1ccc(/C=C2\SC(=NCc3ccccc3)N(Cc3ccccc3)C2=O)cc1C(=O)O`, for which the displacement was found to be 78%.
For `COc1cccc(CN2CCN(C(=O)c3cccc4ccccc34)CC2)c1`, the displacement came out at 4.6%.
Turning to `COc1ccc(-c2csc(/C(C#N)=C\c3ccc(C)s3)n2)cc1`, the displacement stood at 115%.
On to `O=C(O)C1CC=CCC1C(=O)Nc1ccc(-c2ccccc2)cc1` (configuration not stated), for which the displacement was -5.8%.
As to `CC(C)=C1C2CCC1C(C(=O)Nc1cc(C)cc(C)c1)C2C(=O)O` (configuration not stated), the displacement turned out to be 3.3%.
`Cc1ccc(N(CC(=O)NCCc2ccccc2)S(C)(=O)=O)cc1Cl`: the displacement came to 19.2%.
With `O=[N+]([O-])c1cc([N+](=O)[O-])c2oc(-c3ccccc3)c(Br)c2c1O`, the displacement was determined as 41.7%.
With `COc1cccc(C2C(C(=O)Nc3ccccc3)=C(C)N=c3s/c(=C\c4ccncc4)c(=O)n32)c1` (configuration not stated), the displacement was found to be 9.6%.
Regarding `O=C(Nc1ccc(Cl)cn1)c1cc([N+](=O)[O-])ccc1Cl`, the displacement is -4.1%.
For the molecule `CCCc1ccc(-c2ccc(-c3nc(-c4ccccn4)no3)cc2)cc1`, the displacement came to 2.7%.
Consider `Cc1ccc(Cl)cc1NC(=O)CSc1nc2ccc(N3C(=O)c4ccccc4C3=O)cc2s1`, for which the displacement was -14.8%.
Under `CCOC(=O)C1=C(c2ccccc2)N=C2SCC(=O)N2C1c1ccc2c(c1)OCO2` (configuration not stated) stands -11.2%.
As to `O=C(O)c1cc(-c2ccc(O)cc2)nc2ccc(Br)cc12`, the displacement came to 10.4%.
Turning to `COc1ccc(C2CC(c3ccc(C)o3)=NN2C(C)=O)cc1` (configuration not stated), the displacement is -1%.
The value for `CCc1ccc(NC(=O)CSc2ccc(Cl)cc2)cc1` was -8.1%; that for `CC(=O)Nc1ccc(C2NC(=O)NC3=Nc4ccccc4SC(c4ccccc4)=C32)cc1` (configuration not stated) was 10.1%.
Consider `O=C(Nc1ccccc1Br)c1ccc(CN2CCc3ccccc3C2)cc1`, for which the displacement amounted to 3.3%.
Turning to `OC(COCc1ccccc1)CN1CCN(c2ccccn2)CC1` (configuration not stated), the displacement was determined as 8.6%.
For `O=C(CSc1nc2ccc([N+](=O)[O-])cc2s1)NC(c1ccccc1)c1ccccc1`, the displacement was -7.3%.
As for `CCOC(=O)c1ccc(NC(=O)c2cc(Cl)ccc2OC)cc1`, the displacement is -0.8%.
For `O=C1NC(=S)S/C1=C/c1cn(CCOc2ccc(Br)cc2)c2ccccc12`, the displacement came to 68.9%.
The value for `O=C1N=C(N2CCCCCC2)S/C1=C\c1ccc(O)cc1` was -26.3%; that for `CCSc1nnc(NC(=O)c2ccc3c(c2)OCO3)s1` was 2.4%.
As for `CCOc1ccc(NC(=S)NC(NC(=O)c2ccccc2Cl)C(Cl)(Cl)Cl)cc1` (configuration not stated), the displacement was -11.1%.
Under `COC(=O)c1ccc(OCC(O)Cn2nc(C)cc2C)cc1` (configuration not stated) stands -9.8%.
On to `C=CCOc1ccc(/C=C/C(=O)c2ccc(Cl)cc2)cc1`, for which the displacement was -2.1%.
Take `Cc1ccc(C(=O)Nc2ccc(S(=O)(=O)N3CCC(C)CC3)cc2)cc1`: the displacement turned out to be 2.4%.
Under `COc1ccccc1CC(=O)N1CCN(c2ccc([N+](=O)[O-])cc2)CC1` stands 11.9%; under `COC(=O)C1=C(C(=O)OC)SC2(S1)C(C(=O)OC)=C(C(=O)OC)SC1=C2c2cccc(OC)c2NC1(C)C`, 5.3%.
With `O=[N+]([O-])c1ccc(N[C@@H]2OC[C@@H](O)[C@H](O)[C@@H]2O)cc1`, the displacement was determined as 9%.
As for `O=C(N/N=C/c1cccnc1)c1ccco1`, the displacement was found to be 18.4%.
Under `Cc1ccc(-n2cnc(N=CN(C)C)c2C(=O)c2ccccc2)cc1` stands -0.1%; under `COc1ccc(N2C(=O)c3ccccc3NC2c2ccc(OC)c(OC)c2)cc1` (configuration not stated), 14.4%; under `S=C(c1ccc(-c2ccc(Cl)c(Cl)c2)o1)N1CCOCC1`, 10%.
For `CCCCCCCCS(=O)c1sc2nc3c(cc2c1N)CCCC3` (configuration not stated), the displacement is -6%.
Take `O=C(/C=C/c1ccc2c(c1)OCO2)Nc1c(F)c(F)c(F)c(F)c1F`: the displacement was -7.3%.
Take `COc1cccc(C2Nc3cc(C)c(C)cc3NC3=C2C(=O)CC(C)(C)C3)c1OC` (configuration not stated): the displacement stood at 4%.
In the case of `CC1CCN(CCCCOc2ccc(Cl)cc2)CC1`, the displacement was -11.7%.
With `CN(C)CCCNC(=O)c1ccc(F)cc1`, the displacement was -1.5%.
In the case of `COc1ccc(OC)c(NC(=O)C2c3ccccc3Oc3ccccc32)c1`, the displacement was determined as 14.1%.
Consider `CC1=C(C(=O)Nc2ccccc2)C(c2cc(C)cs2)NC(=O)N1` (configuration not stated), for which the displacement is -3.6%.
As for `O=C(c1ccccc1F)N(c1ccccc1)C1C=CS(=O)(=O)C1` (configuration not stated), the displacement was -5.7%.
For `O=C(/C=C/c1ccc(F)cc1)Nc1ccc(F)cc1`, the displacement was 10.1%.
`CCOc1ccccc1NC(=O)CN(c1ccccc1OC)S(=O)(=O)c1ccccc1`: the displacement is -4.3%.
Consider `Cc1cccc(Nc2nc(Nc3cccc(C)c3)nc(SC(=S)N3CCOCC3)n2)c1`, for which the displacement is -2.7%.
With `O=C(Nc1ccc(Br)cc1)C1c2ccccc2Oc2ccccc21`, the displacement was -14.2%.
In the case of `CCC(C)(C)C1CCc2c(sc(NC(=O)/C=C/C(=O)O)c2C(N)=O)C1` (configuration not stated), the displacement was 2.4%.
Regarding `O=C(CC1Sc2ccc(C(F)(F)F)cc2NC1=O)Nc1ccc(I)cc1` (configuration not stated), the displacement was -23.7%.
On to `O=C(Nc1ccccc1C(=O)O)c1ccc(NC(=O)C(c2ccccc2)c2ccccc2)cc1`, for which the displacement turned out to be 4.8%.
For `O=C(/C=C/Nc1ccccn1)c1ccc(Br)cc1`, the displacement turned out to be 3%.
Consider `CC1=NN(C(=O)OC(C)(C)C)C(O)(c2ccncc2)C1` (configuration not stated), for which the displacement was determined as 8.1%.
With `CCOC(=O)c1c(-c2ccccc2)oc2ccc(OC(=O)C(C)(C)C)cc12`, the displacement turned out to be 10.8%.
Turning to `O=C1C2C(C(=O)N1c1ccncc1)C1C=CC2C12CC2` (configuration not stated), the displacement was -9.1%.
`COC(=O)c1sccc1NC(=O)/C=C/c1cccs1`: the displacement is -4.4%.
Take `COc1cccc(-c2nc(-c3ccccc3)c(-c3cc([N+](=O)[O-])ccc3C)[nH]2)c1OC`: the displacement came to 5.2%.
The value for `COc1ccc(NC(=O)COc2cccc(C)c2)c(OC)c1` was -4.5%; that for `C=CCN1C(=O)/C(=C\c2ccccc2Cl)SC1=S` was 16.1%; that for `Cc1ccc(NC(=O)C(=O)NCCc2ccc(Cl)cc2)cc1` was -3.5%.
In the case of `Cc1nc(-c2ccccc2)sc1C(=O)Nc1cccc(-c2cn3ccccc3n2)c1`, the displacement was 8.5%.
In the case of `CCC1=NN2C(=N)/C(=C/c3cn(Cc4ccc(F)cc4)c4ccccc34)C(=O)N=C2S1`, the displacement was 30.8%.
The value for `CCC(=O)Nc1sc2c(c1C(=O)Nc1cccc3ccccc13)CCC2` was -10.9%; that for `C=CCN1C(=O)/C(=C\c2cc3c(cc2Cl)OCO3)C(=O)NC1=S` was -2.5%.
With `CCOc1cc(C(=O)Nc2ccccc2Br)cc(OCC)c1OCC`, the displacement stood at 3.1%.
The value for `CCN(CC)CCCOc1ccccc1OC` was -0.5%; that for `CCOC(=O)c1c(NC(=O)c2ccc(Cl)c([N+](=O)[O-])c2)sc(C(=O)Nc2ccccc2C(F)(F)F)c1C` was -6%.
As to `CCOn1c(=O)c(C)[n+]([O-])c2ccccc21`, the displacement was 14.9%.
On to `CCOc1ccc(N(CC(=O)N2CCCCC2)S(=O)(=O)c2ccc(Br)cc2)cc1`, for which the displacement is 0.6%.
Under `O=C(NCCCNc1ccc([N+](=O)[O-])cc1Cl)c1ccccc1Cl` stands -7.6%; under `COc1cccc(C(=O)Nc2sc3c(c2C(N)=O)CCC(C)C3)c1` (configuration not stated), 6%.
The value for `O=C(CSc1nsc(SCC(=O)C2CC2)n1)C1CC1` was 5.9%; that for `O=C1CC(=O)N(c2cccc(Cl)c2)N1` was 18.8%; that for `CCC1(C)CC(CCNCc2ccc(F)cc2)(c2ccc(OC)cc2)CCO1` (configuration not stated) was -10.9%.
`CCc1ccccc1N(CC(=O)Nc1cc(C)ccc1C)S(C)(=O)=O`: the displacement is -12.2%.
As to `CCCC(=O)Nc1cccc(-c2cc3ccccc3oc2=O)c1`, the displacement amounted to 7.8%.
Regarding `CCOC(=O)C(=CNc1cc(Cl)ccc1OC)C(=O)OCC`, the displacement was 10.6%.
As for `Cc1sc(NC(=O)/C=C/c2ccccc2)c(C(=O)OC(C)C)c1C`, the displacement worked out at 12.9%.
In the case of `COc1ccc(OCc2nc(-c3cccnc3)no2)cc1`, the displacement was determined as 0.8%.
Take `CCOC(=O)C1=C(C)N=c2s/c(=C\c3cc4c(cc3Br)OCO4)c(=O)n2C1c1ccc(OC)cc1` (configuration not stated): the displacement was determined as 1.9%.
Turning to `CS(=O)(=O)N(CC(O)Cn1c2ccc(Cl)cc2c2cc(Cl)ccc21)c1ccccc1` (configuration not stated), the displacement was determined as 6.9%.
Consider `CSc1ccccc1C(=O)O/N=C1\CCCc2c1ccc(O)c2C`, for which the displacement is -4.1%.
Under `COCCNC(=O)Nc1ccc2nc3c4ccccc4c4ccccc4c3nc2c1` stands 3.9%.
Regarding `COc1ccc(/C(C)=N\N2CCN(Cc3ccc(Cl)cc3)CC2)cc1OC`, the displacement is 11.4%.

These data come from PubChem BioAssay AID1240 (Sanford-Burnham Center for Chemical Genomics, 2008).
